According to PubChem BioAssay (NCI):
Where “and” joins values, the source holds several entries; their conditions need not be identical. Identical values can stand only once.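 Grown in 96-well plates, cells were treated for 48 hours with each compound at five concentrations. Insufficient inhibition: endpoint recorded as highest concentration tested. GI50 is the concentration that inhibits growth by half. TGI denotes the concentration required for complete inhibition of growth.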

Tested on: NCI-H322M lung
Test: DTP human tumour cell line panel, 48 h

Row | Structure (SMILES) | TGI | GI50 [µM]
1 | O=C1CC(C(O)(C(F)(F)F)C(F)(F)Cl)CCC1C(O)(C(F)(F)F)C(F)(F)Cl (configuration not stated) | > 10 µM | 
2 | COC(c1ccc(C(C)(C)C)cc1)(c1ccc(C(C)(C)C)cc1)c1ccc(C(C)(C)C)cc1 | > 100 µM | 
3 | O=[N+]([O-])c1cccc(C2=NOC(C3CCCCC3)C2)c1 (configuration not stated) | > 100 µM | 
4 | O=c1[nH]cnc2c1ncn2[C@@H]1C[C@@H]1CO | > 100 µM | 
5 | CCCCn1cnc2c(c(CC#N)nn2-c2ccccc2)c1=N | > 100 µM | 
6 | Nc1c(-c2ccccc2-c2c(N)[n+]([O-])c3ccccc3[n+]2[O-])[n+]([O-])c2ccccc2[n+]1[O-] | > 100 µM | 
7 | O=C(Nc1cc(Nc2ncccc2-c2ncnc3nc[nH]c23)ccc1F)c1cc(C(F)(F)F)cc(C(F)(F)F)c1 | > 10 µM | 2.8
8 | N[C@H](CCC(=O)N[C@@H](Cc1c[nH]c2ccccc12)C(=O)O)C(=O)O | > 100 µM | > 100
9 | CC(=O)c1cccn1/C=C(\OC(=O)OC(C)(C)C)c1ccc[nH]1 | > 100 µM | 
10 | CC1=NN(C(=O)CC(=O)Nc2ccccc2F)C(=O)C1N=Nc1ccccc1[N+](=O)[O-] (configuration not stated) | > 100 µM | 
11 | Nc1ccccc1C(=O)/C=C/c1c(O)ccc2ccccc12 | > 100 µM | 
12 | Cc1c(N2C(=O)C(Cl)C2c2ccc(Cl)cc2)c(=O)n(-c2ccccc2)n1C (configuration not stated) | > 100 µM | 
13 | C=CCNC(=S)N=Nc1c(O)[nH]c2ccc([N+](=O)[O-])cc12 | > 100 µM | 
14 | CN(C(=O)c1ccc([N+](=O)[O-])cc1)c1ccccc1 | > 100 µM | 
15 | CCOC(CNCCC(=O)OC)OCC | > 10 µM | 
16 | N#CC(=Nc1ccccc1N(C(=O)c1ccccc1)C(=O)c1ccccc1)c1ccccc1 | > 100 µM | 
17 | COc1ccc(C(CC(=O)c2ccc3c(c2)OCO3)c2c(O)c3ccccc3oc2=O)cc1OC (configuration not stated) | > 100 µM | 
18 | CC(C)(C)c1ccc2c(c1)S(=O)(=O)Nc1ccc(Cl)cc1NS(=O)(=O)c1cc(C(C)(C)C)ccc1OCCOCCOCCO2 | > 100 µM | 
19 | c1ccc2c(c1)[nH]c1c2cc[n+]2cc3c(cc12)CCCC3 | 8.77 µM and 12 µM | 

Row | Structure (SMILES) | TGI | GI50 [µM]
20 | Nc1ccc(-c2nc3ccccc3s2)cc1C(F)(F)F | 28.9 µM | 
21 | Cc1ccc(OCCn2cc(Nc3ccccc3)c(=O)n(CCOc3ccc(C)cc3)c2=O)cc1 | > 100 µM | 
22 | Cc1cn([C@@H]2C[C@H](CO)[C@@H](O)C2)c(=O)[nH]c1=O | > 100 µM | 
23 | Cc1[nH]c2ccccc2c1C1Cc2ccccc2N1C(=O)C#Cc1ccc([N+](=O)[O-])cc1 (configuration not stated) | > 100 µM | 
24 | O=C(c1ccco1)c1c(C(F)(F)F)n([O-])c2ccc(C(F)(F)F)cc2[n+]1=O | 2.98 µM | 1.58
25 | CCc1ccc2c(c1)C(=O)c1c-2n(CCCN=[N+]=[N-])c(=O)c2cc([N+](=O)[O-])ccc12 | > 50 µM | > 50
26 | O=C(O)c1cccc(COc2ccc([N+](=O)[O-])cc2Cl)c1 | > 100 µM | 36.9
27 | O=C(Cc1nc2c3c(ccc2[nH]c1=O)C(=O)c1ccccc1C3=O)C(=O)Nc1ccccc1[N+](=O)[O-] | > 100 µM | 
28 | COc1cc2c(cc1O)CCN[C@]21CS[C@@H]2c3c(OC(C)=O)c(C)c4c(c3[C@H](COC1=O)N1[C@@H]2[C@H]2c3c(cc(C)c(OC)c3O)C[C@@H]([C@@H]1O)N2C)OCO4 | 0.25 µM | 0.00344
29 | N/C(=N\S(=O)(=O)c1c(C(F)(F)F)cccc1C(F)(F)F)Nc1ccc(Cl)cc1 | 56.8 µM | 
30 | CNc1ncnc2c1cnn2COCC(O)CO (configuration not stated) | > 100 µM | 
31 | CC1=C(C#N)C(=O)CC(c2ccc(Cl)cc2)N(C)N1 (configuration not stated) | > 100 µM | 
32 | COc1cc(/C=C\c2cc(OC)c(OC)c(OC)c2)cc(N/C=C\C(=O)c2c[nH]c3ccccc23)c1OC | 16.6 µM | 1.2
33 | CC(C)(C)OC(=O)NCCC(N)=S | > 100 µM | 
34 | Cc1cc(-c2nc3ccccc3s2)ccc1NC(=O)[C@@H](N)CCCCN | 23.4 µM | 
35 | Cc1cn(-c2cc(C(=O)Nc3cccc(-n4ccc5c(NC(=O)c6ccccc6)nccc54)c3)cc(C(F)(F)F)c2)cn1 | 17 µM | 0.58
36 | N#CCc1nc(-c2ccccc2)n[nH]1 | > 100 µM | 
37 | O=C1CCCN1c1ccccc1I(=O)=O | > 100 µM | > 100
38 | O=c1ccn(C2OC(CO)C(P(=O)(O)O)C2O)c(=O)[nH]1 (configuration not stated) | > 100 µM | 
